Assay results published in PubChem BioAssay AID485294 (National Center for Advancing Translational Sciences (NCATS), 2010).
In all, about 370,000 compounds went through this assay and about 150 (0.041%) were called active. Inconclusive results, whose numbers are uncertain, are shown with a selection of clear calls. Calls follow the shape of the dose curve; as a rule, active = well fitted inhibition curve with a large enough effect; inconclusive = small, poorly fitted or top-dose-only effect; inactive = flat fitted curve, though single readings scatter. Potencies of inconclusive entries are left out as doubtful fits.

Each molecule was assayed against Beta-lactamase (Escherichia coli (strain K12)) (UniProt P00811) (assay: qHTS Inhibitors of AmpC Beta-Lactamase (assay with detergent)). Conditions: AmpC hydrolysis of nitrocefin, absorbance 480 nm, 0.01% Triton; series mostly up to 114 µM.
UniProt P00811, sequence (P00811 whole entry, looked up): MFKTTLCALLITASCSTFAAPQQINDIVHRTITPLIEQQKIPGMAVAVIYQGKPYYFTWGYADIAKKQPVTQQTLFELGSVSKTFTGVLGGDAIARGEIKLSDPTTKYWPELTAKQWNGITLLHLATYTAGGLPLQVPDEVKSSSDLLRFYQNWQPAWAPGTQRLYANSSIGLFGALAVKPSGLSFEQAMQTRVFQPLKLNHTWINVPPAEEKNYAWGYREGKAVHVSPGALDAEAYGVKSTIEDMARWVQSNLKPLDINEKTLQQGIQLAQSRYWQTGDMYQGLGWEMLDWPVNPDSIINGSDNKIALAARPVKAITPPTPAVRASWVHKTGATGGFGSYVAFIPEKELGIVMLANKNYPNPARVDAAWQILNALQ
Procedure, shortened: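 AmpC (5.3 nM in the dispensed reagent) in 20 mM phosphate pH 7.0 with 0.01% (detergent screen) or 0.0001% Triton X-100 was preincubated with compounds for 15 min at room temperature. Nitrocefin was then added from an 800 uM solution, and hydrolysis was followed at 480 nm.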
Also: nearly all actives have a fitted effect of over 25% in size.
Potency is read from the fitted curve at half-maximal effect; tags tell the direction and shape of the fitted curve.

SMILES	Potency
CCOC(=O)CSc1nc2cc(C)ccc2cc1C#N	inactive
CCOC(=O)c1sc(NC(=O)C(C)(C)C)cc1C	inconclusive [inhibitor, partial curve]
CCC1(c2ccc(OC)cc2)NC(=O)N(CC(=O)N2CCc3ccccc32)C1=O (stereo not given)	inconclusive [inhibitor, full curve]
O=c1o[nH]c(-c2ccccc2)c1C1=NCCCCC1	inconclusive [inhibitor, full curve, poor fit]
CCOc1ccc(NS(=O)(=O)c2cc(C(=O)N3CCCC3)ccc2Cl)cc1	inconclusive [inhibitor, partial curve]
Cc1ccc2nc(NNC(=O)c3ccc(S(=O)(=O)N4CCc5ccccc5C4)cc3)sc2c1	inconclusive [inhibitor, full curve, poor fit]
CCOC(=O)C1CCCN(c2c(N3CCc4ccccc4C3)c(=O)c2=O)C1 (stereo not given)	inconclusive [inhibitor, full curve, poor fit]
Cc1cccc(NC(=O)C2CC(=O)NC(Nc3nc4ccccc4s3)=N2)c1 (stereo not given)	inconclusive [inhibitor, partial curve]
CC1CCN(CCCNS(=O)(=O)c2cc(Br)cc3c2N(C(=O)C2CC2)CC3)CC1	inconclusive [inhibitor, partial curve]
Cc1cc(C(=O)COC(=O)C2=COCCO2)c(C)n1-c1cccc(F)c1	inconclusive [inhibitor, partial curve, poor fit]
COC(=O)N1C(=O)[C@@](c2ccccc2)(C(C)C)N1C(=O)OC	inactive
O=C(Nc1cccc2c1CCCC2)c1cccc(F)c1	inconclusive [inhibitor, full curve, poor fit]
COc1cc(/C=N/N=C2/NC(=O)C(CC(=O)O)S2)ccc1OCc1ccc(Cl)cc1 (stereo not given)	inconclusive [inhibitor, full curve, poor fit]
COC(=O)c1ccccc1NC(=O)CSc1nnc(Cc2ccc(Cl)cc2)o1	inconclusive [inhibitor, full curve, poor fit]
CC(=O)c1ccc(NC(=O)c2noc3c2CCC3)cc1	inconclusive [inhibitor, single point]
Cn1c(SCC(=O)Nc2ccc(C(N)=O)cc2)nc2c(c1=O)SCC2	inactive
COc1ccccc1-c1c(C)c(C)nc(N)c1C#N	inactive
Cc1nc2cc(-c3ccccc3)[nH]n2c(=O)c1C	inactive
COCc1cc(CN2CCN(C)CC2)c(O)c2ncccc12	inactive
COc1ccccc1-n1c(N)c(C(=O)NCC2CCCO2)c2nc3ccccc3nc21 (stereo not given)	inconclusive [inhibitor, partial curve, poor fit]
CCOc1ccc(N2CC(=O)SC2=S)cc1	inconclusive [inhibitor, full curve, poor fit]
CSc1nsc(SCc2ccc(F)cc2)n1	inactive
Cc1ccc2c(c1)N(C)/C(=C/c1cccc[n+]1C)S2	inactive

SMILES	Potency
COc1ccc(CNCc2ccc3c(c2)OCO3)cc1Br	inconclusive [inhibitor, partial curve]
Cc1cc(NC(=O)CSc2nnc(CNC(=O)c3cccc(C(F)(F)F)c3)o2)no1	inactive
Cc1ccc(C)c(N2CCN(C(=O)C3CCN(c4nc(C)cc(C)n4)CC3)CC2)c1	inconclusive [inhibitor, full curve, poor fit]
Cc1ccc(NC(=O)CSc2nc(-c3cccs3)nc3cc(=O)[nH]n23)cc1C	inconclusive [inhibitor, full curve]
CCOc1ccccc1CN1CCc2nc(N3CCN(C)CC3)ncc2C1	inactive
Cc1ccc(-n2nc(CC#N)c(C#N)c2N)cc1	inconclusive [inhibitor, full curve, poor fit]
CCc1oc(C(=O)O)cc1COC	inconclusive [inhibitor, single point]
CCCCN1C(=O)C(O)(CC(=O)c2c(C)n[nH]c2C)c2cc(Br)ccc21 (stereo not given)	inconclusive [inhibitor, full curve, poor fit]
O=C(Cn1ncc2c3ccccc3n(Cc3cccc(Cl)c3)c2c1=O)NCCCN1CCCCC1	inactive
Cn1cccc1Cc1nnc(SCC(=O)Nc2ccccc2F)n1CCc1ccccc1	inconclusive [inhibitor, full curve, poor fit]
COc1ccc(CN(C(=O)c2ccco2)c2ccc(Br)cc2)cc1OC	inactive
O=C(/C=C/Sc1ccccc1)c1ccc(Cl)cc1	inactive
CCc1cccc(CC)c1NC(=O)CSc1nnc(C2CC2)n1C	inconclusive [inhibitor, full curve, poor fit]
Cc1ccc(N2CCN(C(=O)c3cccs3)CC2)c(C)c1	inconclusive [inhibitor, full curve, poor fit]
CCN(CC)Cc1cc(C(C)=O)ccc1OCC(C)C	inconclusive [inhibitor, full curve, poor fit]
CCOC(=O)n1c(=O)oc2cc(S(=O)(=O)N3CCOCC3)ccc21	inconclusive [inhibitor, partial curve, poor fit]
COc1ccc(/C=N/OCC(=O)NC(c2ccccc2)c2ccccc2)cc1OC	inconclusive [inhibitor, full curve, poor fit]
CO[C@H]1C=C2CCN(C)[C@H]2C2c3cc4c(cc3C(=O)O[C@@H]21)OCO4 (stereo not given in full)	inconclusive [inhibitor, full curve, poor fit]
Cc1cc(C)n(-c2nc3c(c(=O)[nH]c(=O)n3C)n2Cc2cccc(Br)c2)n1	inconclusive [inhibitor, full curve, poor fit]
Cc1oc(C(=O)O)cc1COc1ccc2c(C)cc(=O)oc2c1	inactive
O=C(O)c1ccc(CSc2nnc(-c3cccnc3)n2-c2ccc(Br)cc2)cc1	inactive
CCn1nc(NC(=O)c2ccncc2)c2cc3ccc(C)cc3nc21	inconclusive [inhibitor, full curve, poor fit]
